Source: patent US20170253656A1

These binders were tested against CD74 on CD74 positive SU-DHL-6 cells, P04233 (assay: cell-based or functional assay).

| Binder | 2ND ADC CELL KILL ACTIVITY IC50 |
| --- | --- |
| HC 1251_A06 (wt)/LC 1275_C10 (wt) (antibody, human IgG1, kappa) heavy: MQVQLVESGGGVVQPGRSLRLSCAASGFDFSSYGMHWVRQAPDKGLEWVAVIWDDGSDRYYADSVKGRFTISRDNSKNTLYLQMNSLRAEDTAVYYCARGGTRVLGAIHGTDVWGQGTTVTVSSASTKGPSVFPLAPSSKSTSGGTAALGCLVEDYFPEPATVSWNSGALTSGVHTFPAVLQSSGLYSLSSVVTVPSSSLGTQTYICNVNHKPSNTKVDKKV[human IgG1 Fc omitted]GGSHHHHHH light: MDIQMTQSPSSLSASVGDRVTITCRASQGVSSWLAWYQQKPEKAPKSLIYSARYLQSGVPSRFSGSGSGTDFTLTISSLQPEDFATYYCQQYNLYPLTFGGGTKVEIKRTVAAPSVFIFPPSDEQLKSGTASVVCLLNNFYPREAKVQWKVDNALQSGNSQESVTEQDSKDSTYSLSSTLTLSKADYEKHKVYACEVTHQGLSSPVTKSFNRGEC | 0.008 nM |
| HC 1251_B08 (wt)/LC 1275_C10 (wt) (antibody, human IgG1, kappa) heavy: MQVQLVESGGGVVQPGRSLRLSCAASGFNFSDYGMHWVRQAPDKGLEWVAVIWYDGSISYYADSVKGRFTISRDNSKNTLYLQMNSLRAEDTAVYYCARGGTVEHGAVYGTDVWGQGATVTVSS[human IgG1 constant region omitted]GGSHHHHHH light: MDIQMTQSPSSLSASVGDRVTITCRASQGVSSWLAWYQQKPEKAPKSLIYSARYLQSGVPSRFSGSGSGTDFTLTISSLQPEDFATYYCQQYNLYPLTFGGGTKVEIKRTVAAPSVFIFPPSDEQLKSGTASVVCLLNNFYPREAKVQWKVDNALQSGNSQESVTEQDSKDSTYSLSSTLTLSKADYEKHKVYACEVTHQGLSSPVTKSFNRGEC | 0.01 nM |
| HC 1251_B08 (wt)/LC 1275_C10 (g) (antibody, human IgG1, kappa) heavy: MQVQLVESGGGVVQPGRSLRLSCAASGFNFSDYGMHWVRQAPDKGLEWVAVIWYDGSISYYADSVKGRFTISRDNSKNTLYLQMNSLRAEDTAVYYCARGGTVEHGAVYGTDVWGQGATVTVSS[human IgG1 constant region omitted]GGSHHHHHH light: MDIQMTQSPSSVSASVGDRVTITCRASQGVSSWLAWYQQKPGKAPKLLIYSARYLQSGVPSRFSGSGSGTDFTLTISSLQPEDFATYYCQQYNLYPLTFGGGTKVEIKRTVAAPSVFIFPPSDEQLKSGTASVVCLLNNFYPREAKVQWKVDNALQSGNSQESVTEQDSKDSTYSLSSTLTLSKADYEKHKVYACEVTHQGLSSPVTKSFNRGEC | 0.013 nM |
| HC 1251_A06 (wt)/LC 1337_A09 (wt) (antibody, human IgG1, kappa) heavy: MQVQLVESGGGVVQPGRSLRLSCAASGFDFSSYGMHWVRQAPDKGLEWVAVIWDDGSDRYYADSVKGRFTISRDNSKNTLYLQMNSLRAEDTAVYYCARGGTRVLGAIHGTDVWGQGTTVTVSSASTKGPSVFPLAPSSKSTSGGTAALGCLVEDYFPEPATVSWNSGALTSGVHTFPAVLQSSGLYSLSSVVTVPSSSLGTQTYICNVNHKPSNTKVDKKV[human IgG1 Fc omitted]GGSHHHHHH light: MDIQMTQSPSSLSASVGDRVTITCRASQGIGSWLAWYQQKPEKAPKSLIYAADRLQSGVPSRFSGSGSGTDFTLTISSLQPEDFATYYCQQYHTYPLTFGGGTKVEIKRTVAAPSVFIFPPSDEQLKSGTASVVCLLNNFYPREAKVQWKVDNALQSGNSQESVTEQDSKDSTYSLSSTLTLSKADYEKHKVYACEVTHQGLSSPVTKSFNRGEC | 0.01 nM |
| HC 1251_A06 (wt)/LC 1275_C10 (g) (antibody, human IgG1, kappa) heavy: MQVQLVESGGGVVQPGRSLRLSCAASGFDFSSYGMHWVRQAPDKGLEWVAVIWDDGSDRYYADSVKGRFTISRDNSKNTLYLQMNSLRAEDTAVYYCARGGTRVLGAIHGTDVWGQGTTVTVSSASTKGPSVFPLAPSSKSTSGGTAALGCLVEDYFPEPATVSWNSGALTSGVHTFPAVLQSSGLYSLSSVVTVPSSSLGTQTYICNVNHKPSNTKVDKKV[human IgG1 Fc omitted]GGSHHHHHH light: MDIQMTQSPSSVSASVGDRVTITCRASQGVSSWLAWYQQKPGKAPKLLIYSARYLQSGVPSRFSGSGSGTDFTLTISSLQPEDFATYYCQQYNLYPLTFGGGTKVEIKRTVAAPSVFIFPPSDEQLKSGTASVVCLLNNFYPREAKVQWKVDNALQSGNSQESVTEQDSKDSTYSLSSTLTLSKADYEKHKVYACEVTHQGLSSPVTKSFNRGEC | 0.01 nM |
| HC 1251_A06 (wt)/LC 1337_A10 (g) (antibody, human IgG1, kappa) heavy: MQVQLVESGGGVVQPGRSLRLSCAASGFDFSSYGMHWVRQAPDKGLEWVAVIWDDGSDRYYADSVKGRFTISRDNSKNTLYLQMNSLRAEDTAVYYCARGGTRVLGAIHGTDVWGQGTTVTVSSASTKGPSVFPLAPSSKSTSGGTAALGCLVEDYFPEPATVSWNSGALTSGVHTFPAVLQSSGLYSLSSVVTVPSSSLGTQTYICNVNHKPSNTKVDKKV[human IgG1 Fc omitted]GGSHHHHHH light: MDIQMTQSPSSVSASVGDRVTITCRASQGISSWVAWYQQKPGKAPKLLIYGSSRLQSGVPSRFSGSGSGTDFTLTISSLQPEDFATYYCQQYNTYPLTFGGGTKVEIKRTVAAPSVFIFPPSDEQLKSGTASVVCLLNNFYPREAKVQWKVDNALQSGNSQESVTEQDSKDSTYSLSSTLTLSKADYEKHKVYACEVTHQGLSSPVTKSFNRGEC | 0.011 nM |
| HC 1251_B08 (wt)/LC 1337_A07 (wt) (antibody, human IgG1, kappa) heavy: MQVQLVESGGGVVQPGRSLRLSCAASGFNFSDYGMHWVRQAPDKGLEWVAVIWYDGSISYYADSVKGRFTISRDNSKNTLYLQMNSLRAEDTAVYYCARGGTVEHGAVYGTDVWGQGATVTVSS[human IgG1 constant region omitted]GGSHHHHHH light: MDIQMTQSPSSLSASVGDRVTITCRASQGISSWVAWYQQKPEKAPKSLIYGASRLQSGVPSRFSGSGSGTDFTLTISSLQPEDFATYYCQQYHTYPLTFGGGTKVEIKRTVAAPSVFIFPPSDEQLKSGTASVVCLLNNFYPREAKVQWKVDNALQSGNSQESVTEQDSKDSTYSLSSTLTLSKADYEKHKVYACEVTHQGLSSPVTKSFNRGEC | 0.016 nM |
| HC 1251_A06 (wt)/LC 1337_A07 (g) (antibody, human IgG1, kappa) heavy: MQVQLVESGGGVVQPGRSLRLSCAASGFDFSSYGMHWVRQAPDKGLEWVAVIWDDGSDRYYADSVKGRFTISRDNSKNTLYLQMNSLRAEDTAVYYCARGGTRVLGAIHGTDVWGQGTTVTVSSASTKGPSVFPLAPSSKSTSGGTAALGCLVEDYFPEPATVSWNSGALTSGVHTFPAVLQSSGLYSLSSVVTVPSSSLGTQTYICNVNHKPSNTKVDKKV[human IgG1 Fc omitted]GGSHHHHHH light: MDIQMTQSPSSVSASVGDRVTITCRASQGISSWVAWYQQKPGKAPKLLIYGASRLQSGVPSRFSGSGSGTDFTLTISSLQPEDFATYYCQQYHTYPLTFGGGTKVEIKRTVAAPSVFIFPPSDEQLKSGTASVVCLLNNFYPREAKVQWKVDNALQSGNSQESVTEQDSKDSTYSLSSTLTLSKADYEKHKVYACEVTHQGLSSPVTKSFNRGEC | 0.01 nM |
| HC 1251_B08 (wt)/LC 1337_A09 (wt) (antibody, human IgG1, kappa) heavy: MQVQLVESGGGVVQPGRSLRLSCAASGFNFSDYGMHWVRQAPDKGLEWVAVIWYDGSISYYADSVKGRFTISRDNSKNTLYLQMNSLRAEDTAVYYCARGGTVEHGAVYGTDVWGQGATVTVSS[human IgG1 constant region omitted]GGSHHHHHH light: MDIQMTQSPSSLSASVGDRVTITCRASQGIGSWLAWYQQKPEKAPKSLIYAADRLQSGVPSRFSGSGSGTDFTLTISSLQPEDFATYYCQQYHTYPLTFGGGTKVEIKRTVAAPSVFIFPPSDEQLKSGTASVVCLLNNFYPREAKVQWKVDNALQSGNSQESVTEQDSKDSTYSLSSTLTLSKADYEKHKVYACEVTHQGLSSPVTKSFNRGEC | 0.006 nM |
| HC 1251_A06 (wt)/LC 1337_A07 (wt) (antibody, human IgG1, kappa) heavy: MQVQLVESGGGVVQPGRSLRLSCAASGFDFSSYGMHWVRQAPDKGLEWVAVIWDDGSDRYYADSVKGRFTISRDNSKNTLYLQMNSLRAEDTAVYYCARGGTRVLGAIHGTDVWGQGTTVTVSSASTKGPSVFPLAPSSKSTSGGTAALGCLVEDYFPEPATVSWNSGALTSGVHTFPAVLQSSGLYSLSSVVTVPSSSLGTQTYICNVNHKPSNTKVDKKV[human IgG1 Fc omitted]GGSHHHHHH light: MDIQMTQSPSSLSASVGDRVTITCRASQGISSWVAWYQQKPEKAPKSLIYGASRLQSGVPSRFSGSGSGTDFTLTISSLQPEDFATYYCQQYHTYPLTFGGGTKVEIKRTVAAPSVFIFPPSDEQLKSGTASVVCLLNNFYPREAKVQWKVDNALQSGNSQESVTEQDSKDSTYSLSSTLTLSKADYEKHKVYACEVTHQGLSSPVTKSFNRGEC | 0.007 nM |
| HC 1251_B08 (wt)/LC 1337_A09 (g) (antibody, human IgG1, kappa) heavy: MQVQLVESGGGVVQPGRSLRLSCAASGFNFSDYGMHWVRQAPDKGLEWVAVIWYDGSISYYADSVKGRFTISRDNSKNTLYLQMNSLRAEDTAVYYCARGGTVEHGAVYGTDVWGQGATVTVSS[human IgG1 constant region omitted]GGSHHHHHH light: MDIQMTQSPSSVSASVGDRVTITCRASQGIGSWLAWYQQKPGKAPKLLIYAADRLQSGVPSRFSGSGSGTDFTLTISSLQPEDFATYYCQQYHTYPLTFGGGTKVEIKRTVAAPSVFIFPPSDEQLKSGTASVVCLLNNFYPREAKVQWKVDNALQSGNSQESVTEQDSKDSTYSLSSTLTLSKADYEKHKVYACEVTHQGLSSPVTKSFNRGEC | 0.016 nM |
| HC 1251_A06 (wt)/LC 1337_A09 (g) (antibody, human IgG1, kappa) heavy: MQVQLVESGGGVVQPGRSLRLSCAASGFDFSSYGMHWVRQAPDKGLEWVAVIWDDGSDRYYADSVKGRFTISRDNSKNTLYLQMNSLRAEDTAVYYCARGGTRVLGAIHGTDVWGQGTTVTVSSASTKGPSVFPLAPSSKSTSGGTAALGCLVEDYFPEPATVSWNSGALTSGVHTFPAVLQSSGLYSLSSVVTVPSSSLGTQTYICNVNHKPSNTKVDKKV[human IgG1 Fc omitted]GGSHHHHHH light: MDIQMTQSPSSVSASVGDRVTITCRASQGIGSWLAWYQQKPGKAPKLLIYAADRLQSGVPSRFSGSGSGTDFTLTISSLQPEDFATYYCQQYHTYPLTFGGGTKVEIKRTVAAPSVFIFPPSDEQLKSGTASVVCLLNNFYPREAKVQWKVDNALQSGNSQESVTEQDSKDSTYSLSSTLTLSKADYEKHKVYACEVTHQGLSSPVTKSFNRGEC | 0.011 nM |
| HC 1251_A06 (wt)/LC 1337_A10 (wt) (antibody, human IgG1, kappa) heavy: MQVQLVESGGGVVQPGRSLRLSCAASGFDFSSYGMHWVRQAPDKGLEWVAVIWDDGSDRYYADSVKGRFTISRDNSKNTLYLQMNSLRAEDTAVYYCARGGTRVLGAIHGTDVWGQGTTVTVSSASTKGPSVFPLAPSSKSTSGGTAALGCLVEDYFPEPATVSWNSGALTSGVHTFPAVLQSSGLYSLSSVVTVPSSSLGTQTYICNVNHKPSNTKVDKKV[human IgG1 Fc omitted]GGSHHHHHH light: MDIQMTQSPSSLSASVGDRVTITCRASQGISSWVAWYQQKPEKAPKSLIYGSSRLQSGVPSRFSGSGSGTDFTLTISSLQPEDFATYYCQQYNTYPLTFGGGTKVEIKRTVAAPSVFIFPPSDEQLKSGTASVVCLLNNFYPREAKVQWKVDNALQSGNSQESVTEQDSKDSTYSLSSTLTLSKADYEKHKVYACEVTHQGLSSPVTKSFNRGEC | 0.006 nM |
